Measurements from patent US20080138834A1, “Cellular antagonists of GPCR physiology” (Institute Pasteur Korea, priority 2006, published 2008).

Test system: endothelin A receptor
Conditions: 10-100 ng/mL EGF, with or without ET-1 and erbstatin

B1: EGF: growth factor used to activate the EGF receptor (protein, UniProt P01133 23-1207, looked up)
Pro-epidermal growth factor: PQHWSCPEGTLAGNGNSTCVGPAPFLIFSHGNSIFRIDTEGTNYEQLVVDAGVSVIMDFHYNEKRIYWVDLERQLLQRVFLNGSRQERVCNIEKNVSGMAINWINEEVIWSNQQEGIITVTDMKGNNSHILLSALKYPANVAVDPVERFIFWSSEVAGSLYRADLDGVGVKALLETSEKITAVSLDVLDKRLFWIQYNREGSNSLICSCDYDGGSVHISKHPTQHNLFAMSLFGDRIFYSTWKMKTIWIANKHTGKDMVRINLHSSFVPLGELKVVHPLAQPKAEDDTWEPEQKLCKLRKGNCSSTVCGQDLQSHLCMCAEGYALSRDRKYCEDVNECAFWNHGCTLGCKNTPGSYYCTCPVGFVLLPDGKRCHQLVSCPRNVSECSHDCVLTSEGPLCFCPEGSVLERDGKTCSGCSSPDNGGCSQLCVPLSPVSWECDCFPGYDLQLDEKSCAASGPQPFLLFANSQDIRHMHFDGTDYGTLLSQQMGMVYALDHDPVENKIYFAHTALKWIERANMDGSQRERLIEEGVDVPEGLAVDWIGRRFYWTDRGKSLIGRSDLNGKRSKIITKENISQPRGIAVHPMAKRLFWTDTGINPRIESSSLQGLGRLVIASSDLIWPSGITIDFLTDKLYWCDAKQSVIEMANLDGSKRRRLTQNDVGHPFAVAVFEDYVWFSDWAMPSVMRVNKRTGKDRVRLQGSMLKPSSLVVVHPLAKPGADPCLYQNGGCEHICKKRLGTAWCSCREGFMKASDGKTCLALDGHQLLAGGEVDLKNQVTPLDILSKTRVSEDNITESQHMLVAEIMVSDQDDCAPVGCSMYARCISEGEDATCQCLKGFAGDGKLCSDIDECEMGVPVCPPASSKCINTEGGYVCRCSEGYQGDGIHCLDIDECQLGEHSCGENASCTNTEGGYTCMCAGRLSEPGLICPDSTPPPHLREDDHHYSVRNSDSECPLSHDGYCLHDGVCMYIEALDKYACNCVVGYIGERCQYRDLKWWELRHAGHGQQQKVIVVAVCVVVLVMLLLLSLWGAHYYRTQKLLSKNPKNPYEESSRDVRSRRPADTEDGMSSCPQPWFVVIKEHQDLKNGGQPVAGEDGQAADGSMQPTSWRQEPQLCGMGTEQGCWIPVSSDKGSCPQVMERSFHMPSYGTQTLEGGVEKPHSLLSANPLWQQRALDPPHQMELTQ
modifications: Pro-epidermal growth factor
ETAR internalization on EGFR activation: not affected
